The whole screen tested about 310,000 compounds, of which about 14,000 (4.5%) showed an effect of 50% or more. The effect is printed as a negative number. The list shows a part of the results.
Target: human ether-à-go-go-related gene (hERG) potassium channel (human, UniProt Q12809)
Assay: primary screen, population patch clamp on CHO cells stably expressing hERG
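Note: peak tail current of the secondary pulse compared with the same well before compound.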

Chain of human ether-à-go-go-related gene (hERG) potassium channel (Q12809 whole entry, looked up): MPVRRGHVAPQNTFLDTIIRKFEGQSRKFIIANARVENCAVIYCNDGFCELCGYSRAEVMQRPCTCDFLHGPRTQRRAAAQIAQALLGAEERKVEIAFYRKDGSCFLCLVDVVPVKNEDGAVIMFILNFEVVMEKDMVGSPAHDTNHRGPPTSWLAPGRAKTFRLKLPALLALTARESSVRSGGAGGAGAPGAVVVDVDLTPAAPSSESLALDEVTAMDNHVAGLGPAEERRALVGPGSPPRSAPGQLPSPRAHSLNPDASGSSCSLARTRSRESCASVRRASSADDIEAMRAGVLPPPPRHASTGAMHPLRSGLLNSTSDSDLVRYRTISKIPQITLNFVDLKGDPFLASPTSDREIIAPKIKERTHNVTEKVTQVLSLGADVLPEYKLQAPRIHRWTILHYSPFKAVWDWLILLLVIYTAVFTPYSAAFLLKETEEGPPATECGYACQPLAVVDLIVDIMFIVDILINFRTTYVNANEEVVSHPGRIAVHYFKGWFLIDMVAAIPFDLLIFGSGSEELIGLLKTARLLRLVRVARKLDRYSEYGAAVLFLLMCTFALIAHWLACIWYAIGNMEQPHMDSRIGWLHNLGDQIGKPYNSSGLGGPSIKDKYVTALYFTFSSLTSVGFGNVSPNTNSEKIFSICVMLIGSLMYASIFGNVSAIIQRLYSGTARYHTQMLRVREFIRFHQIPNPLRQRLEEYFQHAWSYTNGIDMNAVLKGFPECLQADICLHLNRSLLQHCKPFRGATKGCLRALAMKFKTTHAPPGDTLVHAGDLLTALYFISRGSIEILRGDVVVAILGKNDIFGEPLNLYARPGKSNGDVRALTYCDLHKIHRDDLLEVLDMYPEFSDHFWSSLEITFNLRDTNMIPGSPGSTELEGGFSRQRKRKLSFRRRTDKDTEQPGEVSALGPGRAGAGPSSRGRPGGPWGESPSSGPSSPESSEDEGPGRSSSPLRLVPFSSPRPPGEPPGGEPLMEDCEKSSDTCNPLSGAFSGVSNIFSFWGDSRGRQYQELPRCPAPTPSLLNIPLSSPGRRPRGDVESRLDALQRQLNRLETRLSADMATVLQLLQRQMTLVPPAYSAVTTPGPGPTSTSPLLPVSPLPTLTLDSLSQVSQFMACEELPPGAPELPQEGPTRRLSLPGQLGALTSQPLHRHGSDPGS

SMILES | hERG current change (%, negative = inhibition) at 10uM [%]
CC(=O)c1ccc(OCC(=O)NC2CCCCCC2)cc1 | -3.21
Cc1cccc(-n2ncc3c2CCCC3NC(=O)C2=CC(=O)CC(C)(C)O2)c1C (stereo not drawn) | -0.83
CNc1oc(-c2ccc(F)cc2)nc1S(=O)(=O)c1ccccc1 | -2.4
Cc1cccc(NC(=O)CSCC(=O)Nc2ccccc2C(=O)NC2CC2)c1 | -1.72
CCCC(=O)Nc1nnc(SCC(=O)NCc2ccc3c(c2)OCO3)s1 | 25.5
O=C(CS(=O)(=O)c1ccccc1)Nc1cccnc1 | 24.9
COc1ccccc1S(=O)Cc1ccc(C(=O)NCc2ccccc2Cl)o1 (stereo not drawn) | -19.5
CC(/C=C/c1ccccc1)=N\NC(=O)c1cc(C)nc2ccccc12 | 8.41
O=C(O)c1cc2cccc(S(=O)(=O)N3CCOCC3)c2cc1O | 12.1
COc1ccc(NC(=O)CN2CCN(C(=O)c3ccco3)CC2)c(OC)c1 | -37.4
Cc1ccc(C(=O)NC(=S)N2CCN(c3ccccc3F)CC2)cc1 | 4.18
Cc1ncc([N+](=O)[O-])n1CCO | 6.57
O=C(Cc1ccc(NS(=O)(=O)c2ccc(F)cc2)cc1)NCc1ccccc1 | -16.4
CCOC(=O)c1[nH]c2ccccc2c1NC(=O)Nc1ccc(OC)cc1 | 2.47
COc1ccc(C(=O)NCc2ccc3c(c2)cc(C)n3C)cc1 | 5.56
CC(=O)c1ccc(S(=O)(=O)Nc2cccc(-n3cnnn3)c2)cc1 | 4.99
Cc1ccc(-c2c(C(=O)N/N=C/c3cccc(Cl)c3)nnn2-c2nonc2N)cc1 | 12.5
O=C(Cn1cnc2ccccc2c1=O)NCc1cccs1 | 17.7
O=C(CSc1nncn1-c1ccccc1)Nc1cccc(S(=O)(=O)N2CCCCC2)c1 | 9.1
CCc1nnc(NC(=O)CN2C(=O)c3ccccc3S2(=O)=O)s1 | 10.7
O=C(NCc1ccco1)C(Cc1ccccc1)N1C(=O)C2C3C=CC(C3)C2C1=O (stereo not drawn) | -1.04
CCOC(=O)CSCC(=O)Nc1ccc(S(=O)(=O)N2CCCCC2)cc1 | -0.639
C=CCn1c(SCC(=O)Nc2cc(C)ccc2C)nnc1-c1cnccn1 | -14.4

SMILES | hERG current change (%, negative = inhibition) at 10uM [%]
Cc1cccc(CC(=O)Nc2ccc(C(=O)N3CCCCC3)cc2)c1 | 19.2
CC(C)C(NC(=O)c1ccccc1)C(=O)NCc1ccccn1 (stereo not drawn) | 9.6
CC(=O)Nc1cccc(N)c1 | 12.9
O=C(/C=C/c1cccs1)Nc1nccs1 | 15.8
CN(c1ccccc1)S(=O)(=O)c1ccc(NC(=O)c2nc(S(C)(=O)=O)ncc2Cl)cc1 | 10.9
Cc1ccc(S(=O)(=O)NCCOCCNS(=O)(=O)c2ccc(C)cc2)cc1 | -31.7
CN1CCc2c(sc3c2c(NCc2ccco2)nc2nnnn23)C1 | -71.8
Cc1ccc(OCC(=O)Nc2cccc3nsnc23)c(C)c1 | 11.3
CCN1CCN(c2nc3c(C)cccn3c(=O)c2/C=C(\C#N)S(=O)(=O)c2ccccc2)CC1 | -15.7
COCCn1c(SCC(=O)NC2CCCC2)nc2cccnc21 | 17.1
COc1ccc(-c2noc(CSc3nnc(-c4ccccc4)n3C)n2)cc1 | -32.8
O=[N+]([O-])c1ccccc1CCc1cnc(Cl)s1 | 5.76
O=C(NCCN1CCN(C(=O)c2c(F)cccc2F)CC1)C(=O)Nc1ccc(Cl)cc1 | -32.5
COc1cccc(-c2nc(CS(=O)(=O)CC(=O)N3CCOCC3)c(C)o2)c1 | 10.2
O=C(Cc1ccc(F)cc1)Nc1cccc(S(=O)(=O)N2CCCC2)c1 | -33.7
COc1ccccc1/C=C(\C)C(=O)c1c(C)cc(C)[nH]c1=O | 3.35
Cc1nc(OCc2ccccc2)c2ccccc2n1 | -2.5
O=C(NCCn1c(C(F)(F)F)nc2ccccc21)[C@H]1CCCN1c1nc(CN2CCCCC2)cs1 | 6.03
CCOC(=O)N1CCN(c2c(NCCc3ccccc3)c(=O)c2=O)CC1 | 5.85
O=C(Nn1cnc2ccccc2c1=O)c1ccccc1 | 12.7
Nc1nc(NCc2ccccc2Cl)n(-c2ccccc2)n1 | 30.9
O=C(Nc1ccccc1Oc1cccnc1)C1CCCN(Cc2ccccc2O)C1 (stereo not drawn) | -57.2
